# Laboratory results as given in the supplement of paper PMC8728848.
# The list shows a part of the results.
# B1: LKPARMA (Neurospora crassa) (protein)
# chain: MSFHVTAEDARRIEVRDNRTILFARLRREDGEWNDASYELDQIIGNNDGHFQWGGGQNFTETAEDIRFHPKEGAAEQPILRARLRDCNGEFHDRDVNLTEIVENVNGEFQAKF
# Experiments:
# Experiment in all cases: glycan array binding signal (z-score within array); higher = stronger binding
# Details in all cases: glycan notation: IUPAC condensed, linker removed
# [1] = biological target: Neu5Ac(a2-8)Neu5Ac(a2-3)[GalNAc(b1-4)]Gal(b1-4)Glc
# How it was run: (§1)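 The binding signal is a Z-score computed within each array and averaged over linkers. Arrays of the same protein sequence at different concentrations or buffers were also averaged together. Data originate from 3228 arrays in the Consortium for Functional Glycomics database, kept only where the protein sequence was available.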
# [2] = biological target: Neu5Ac(a2-8)Neu5Ac(a2-8)Neu5Ac
# How it was run: as §1
# [3] = biological target: Neu5Ac(a2-8)Neu5Ac(a2-8)Neu5Ac(a2-3)Gal(b1-4)Glc
# How it was run: as §1
# [4] = biological target: Neu5Ac(a2-8)Neu5Ac(a2-8)Neu5Ac(a2-3)[GalNAc(b1-4)]Gal(b1-4)Glc
# How it was run: as §1
# [5] = biological target: Neu5Ac(a2-8)Neu5Ac(a2-8)Neu5Ac(a2-8)Neu5Ac(a2-3)[GalNAc(b1-4)]Gal(b1-4)Glc
# How it was run: as §1
# [6] = biological target: Neu5Ac(b1-6)GalNAc
# How it was run: as §1
# [7] = biological target: Neu5Ac(b2-6)Gal(b1-4)GlcNAc
# How it was run: as §1
# [8] = biological target: Neu5Ac9Ac(a2-6)Gal(b1-4)GlcNAc
# How it was run: as §1
# [9] = biological target: Neu5Gc(a2-3)Gal(b1-3)GlcNAc
# How it was run: as §1
# [10] = biological target: Neu5Gc(a2-3)Gal(b1-3)[Fuc(a1-4)]GlcNAc
# How it was run: as §1
# [11] = biological target: Neu5Gc(a2-3)Gal(b1-4)Glc
# How it was run: as §1
# [12] = biological target: Neu5Gc(a2-3)Gal(b1-4)GlcNAc
# How it was run: as §1
# [13] = biological target: Neu5Gc(a2-3)Gal(b1-4)[Fuc(a1-3)]GlcNAc
# How it was run: as §1
# [14] = biological target: Neu5Gc(a2-6)Gal(b1-4)GlcNAc
# How it was run: as §1
# [15] = biological target: Neu5Gc(a2-6)GalNAc
# How it was run: as §1
binder,measurement,setting,value
B1,glycan array binding signal (z-score),[1],-0.248
same,glycan array binding signal (z-score),[2],-0.242
same,glycan array binding signal (z-score),[3],-0.249
same,glycan array binding signal (z-score),[4],-0.242
same,glycan array binding signal (z-score),[5],-0.248
same,glycan array binding signal (z-score),[6],-0.247
same,glycan array binding signal (z-score),[7],-0.24
same,glycan array binding signal (z-score),[8],-0.251
same,glycan array binding signal (z-score),[9],-0.249
same,glycan array binding signal (z-score),[10],-0.251
same,glycan array binding signal (z-score),[11],-0.247
same,glycan array binding signal (z-score),[12],-0.25
same,glycan array binding signal (z-score),[13],-0.244
same,glycan array binding signal (z-score),[14],-0.252
same,glycan array binding signal (z-score),[15],-0.034
